# Experimental data reported in the supplement of paper PMC8728848.
# The other results are listed elsewhere or left out.
# B1: RNase 1 (Bos taurus), P61823 (protein)
# chain: MALKSLVLLSLLVLVLLLVRVQPSLGKETAAAKFERQHMDSSTSAASSSNYCNQMMKSRNLTKDRCKPVNTFVHESLADVQAVCSQKNVACKNGQTNCYQSYSTMSITDCRETGSSKYPNCAYKTTQANKHIIVACEGNPYVPVHFDASV
# Experiments:
# Test in all cases: glycan array binding signal (z-score within array); higher = stronger binding
# Conditions in all cases: glycan notation: IUPAC condensed, linker removed
# [1] = target: Fuc(a1-2)Gal
# How it was run: (§1)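 The binding signal is a Z-score computed within each array. Data were drawn from 3228 arrays in the Consortium for Functional Glycomics database, restricted to those with a known protein sequence. Scores were averaged over arrays of the same protein sequence at different concentrations or buffers, and over linkers, and negative values can be taken as non-binding.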
# [2] = target: Fuc(a1-2)Gal(b1-3)GalNAc
# How it was run: as §1
# [3] = target: Fuc(a1-2)Gal(b1-3)GalNAc(b1-3)Gal
# How it was run: as §1
# [4] = target: Fuc(a1-2)Gal(b1-3)GalNAc(b1-3)Gal(a1-4)Gal(b1-4)Glc
# How it was run: as §1
# [5] = target: Fuc(a1-2)Gal(b1-3)GalNAc(b1-3)Gal(b1-4)Glc
# How it was run: as §1
# [6] = target: Fuc(a1-2)Gal(b1-3)GalNAc(b1-4)[Neu5Ac(a2-3)]Gal(b1-4)Glc
# How it was run: as §1
# [7] = target: Fuc(a1-2)Gal(b1-3)[Fuc(a1-4)]GlcNAc
# How it was run: as §1
# [8] = target: Fuc(a1-2)Gal(b1-4)Glc
# How it was run: as §1
# [9] = target: Fuc(a1-2)Gal(b1-4)GlcNAc
# How it was run: as §1
# [10] = target: Fuc(a1-2)Gal(b1-4)GlcNAc(b1-3)Gal(b1-4)GlcNAc
# How it was run: as §1
# [11] = target: Fuc(a1-2)Gal(b1-4)GlcNAc(b1-3)Gal(b1-4)GlcNAc(b1-3)Gal(b1-4)GlcNAc
# How it was run: as §1
# [12] = target: Fuc(a1-2)Gal(b1-4)[Fuc(a1-3)]GalNAc(b1-3)Gal(b1-4)[Fuc(a1-3)]GlcNAc
# How it was run: as §1
# [13] = target: Fuc(a1-2)Gal(b1-4)[Fuc(a1-3)]GalNAc(b1-3)Gal(b1-4)[Fuc(a1-3)]GlcNAc(b1-3)Gal(b1-4)[Fuc(a1-3)]GalNAc
# How it was run: as §1
# [14] = target: Fuc(a1-2)Gal(b1-4)[Fuc(a1-3)]GlcNAc
# How it was run: as §1
# [15] = target: Fuc(a1-2)GlcNAc
# How it was run: as §1
# [16] = target: Fuc(a1-2)[Gal(a1-3)]Gal
# How it was run: as §1
# [17] = target: Fuc(a1-2)[Gal(a1-3)]Gal(b1-3)GlcNAc
# How it was run: as §1
# [18] = target: Fuc(a1-2)[Gal(a1-3)]Gal(b1-4)Glc
# How it was run: as §1
# [19] = target: Fuc(a1-2)[Gal(a1-3)]Gal(b1-4)GlcNAc
# How it was run: as §1
# [20] = target: Fuc(a1-2)[Gal(a1-3)]Gal(b1-4)[Fuc(a1-3)]GlcNAc
# How it was run: as §1
# [21] = target: Fuc(a1-2)[Gal(a1-4)]Gal(b1-4)GalNAc
# How it was run: as §1
# [22] = target: Fuc(a1-2)[GalNAc(a1-3)]Gal
# How it was run: as §1
# [23] = target: Fuc(a1-2)[GalNAc(a1-3)]Gal(b1-3)GlcNAc
# How it was run: as §1
# [24] = target: Fuc(a1-2)[GalNAc(a1-3)]Gal(b1-4)Glc
# How it was run: as §1
# [25] = target: Fuc(a1-2)[GalNAc(a1-3)]Gal(b1-4)GlcNAc
# How it was run: as §1
# [26] = target: Fuc(a1-2)[GalNAc(a1-3)]Gal(b1-4)[Fuc(a1-3)]GlcNAc
# How it was run: as §1
# [27] = target: Fuc(a1-2)[GalNAc(a1-4)]Gal(b1-4)GlcNAc
# How it was run: as §1
# [28] = target: Fuc(a1-3)GlcNAc
# How it was run: as §1
# [29] = target: Fuc(a1-3)[Gal(b1-4)]GlcNAc
# How it was run: as §1
# [30] = target: Fuc(a1-3)[Gal(b1-4)]GlcNAc(b1-4)Gal(b1-4)[Fuc(a1-3)]GlcNAc
# How it was run: as §1
# [31] = target: Fuc(a1-3)[Gal(b1-4)]GlcNAc(b1-4)Gal(b1-4)[Fuc(a1-3)]GlcNAc(b1-4)Gal(b1-4)[Fuc(a1-3)]GlcNAc
# How it was run: as §1
# [32] = target: Fuc(a1-3)[Gal3S(b1-4)]GlcNAc
# How it was run: as §1
# [33] = target: Fuc(a1-3)[GalNAc(b1-4)]Gal(b1-4)GlcNAc
# How it was run: as §1
# [34] = target: Fuc(a1-4)GlcNAc
# How it was run: as §1
# [35] = target: Fuc(b1-3)GlcNAc
# How it was run: as §1
# [36] = target: Gal(a1-2)Gal
# How it was run: as §1
# [37] = target: Gal(a1-3)Gal
# How it was run: as §1
# [38] = target: Gal(a1-3)Gal(b1-3)Glc
# How it was run: as §1
# [39] = target: Gal(a1-3)Gal(b1-3)GlcNAc
# How it was run: as §1
# [40] = target: Gal(a1-3)Gal(b1-4)GlcNAc
# How it was run: as §1
# [41] = target: Gal(a1-3)Gal(b1-4)[Fuc(a1-3)]GalNAc
# How it was run: as §1
# [42] = target: Gal(a1-3)GlcNAc
# How it was run: as §1
# [43] = target: Gal(a1-3)[Gal(a1-4)]Gal(b1-4)GlcNAc
# How it was run: as §1
# [44] = target: Gal(a1-4)Gal(b1-4)Gal
# How it was run: as §1
# [45] = target: Gal(a1-4)Gal(b1-4)GalNAc
# How it was run: as §1
binder,measurement,setting,value
B1,glycan array binding signal (z-score),[1],-0.156
same,glycan array binding signal (z-score),[2],-0.157
same,glycan array binding signal (z-score),[3],-0.195
same,glycan array binding signal (z-score),[4],1.93
same,glycan array binding signal (z-score),[5],-0.138
same,glycan array binding signal (z-score),[6],-0.19
same,glycan array binding signal (z-score),[7],-0.174
same,glycan array binding signal (z-score),[8],-0.104
same,glycan array binding signal (z-score),[9],-0.178
same,glycan array binding signal (z-score),[10],-0.225
same,glycan array binding signal (z-score),[11],-0.177
same,glycan array binding signal (z-score),[12],-0.193
same,glycan array binding signal (z-score),[13],-0.138
same,glycan array binding signal (z-score),[14],-0.212
same,glycan array binding signal (z-score),[15],-0.17
same,glycan array binding signal (z-score),[16],-0.14
same,glycan array binding signal (z-score),[17],-0.126
same,glycan array binding signal (z-score),[18],-0.211
same,glycan array binding signal (z-score),[19],-0.134
same,glycan array binding signal (z-score),[20],-0.168
same,glycan array binding signal (z-score),[21],0.238
same,glycan array binding signal (z-score),[22],-0.151
same,glycan array binding signal (z-score),[23],-0.241
same,glycan array binding signal (z-score),[24],-0.171
same,glycan array binding signal (z-score),[25],-0.167
same,glycan array binding signal (z-score),[26],-0.057
same,glycan array binding signal (z-score),[27],-0.213
same,glycan array binding signal (z-score),[28],-0.013
same,glycan array binding signal (z-score),[29],-0.227
same,glycan array binding signal (z-score),[30],-0.08
same,glycan array binding signal (z-score),[31],-0.074
same,glycan array binding signal (z-score),[32],-0.168
same,glycan array binding signal (z-score),[33],-0.22
same,glycan array binding signal (z-score),[34],-0.217
same,glycan array binding signal (z-score),[35],-0.234
same,glycan array binding signal (z-score),[36],-0.153
same,glycan array binding signal (z-score),[37],-0.208
same,glycan array binding signal (z-score),[38],-0.212
same,glycan array binding signal (z-score),[39],-0.213
same,glycan array binding signal (z-score),[40],-0.254
same,glycan array binding signal (z-score),[41],-0.199
same,glycan array binding signal (z-score),[42],-0.175
same,glycan array binding signal (z-score),[43],-0.158
same,glycan array binding signal (z-score),[44],7.93
same,glycan array binding signal (z-score),[45],8.87
